Experimental data: PubChem BioAssay AID1745853 (National Center for Advancing Translational Sciences (NCATS), 2022)
Some of the results follow. Further columns of the screen follow, without active or inactive calls.

Key:
Assay in all cases: Primary Screen for Target Class Profiling of Small Molecule Inhibitors of Methyltransferases
[1] = target: Glycine N-methyltransferase (Homo sapiens) (UniProt Q14749); settings: purified enzyme, MTase-Glo SAH luminescence; measured here: GNMT inhibition; at 40 µM; stronger effect = lower value
Outline: (§1)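 Each enzyme was assayed with SAM and its substrate. SAH formation detected by MTase-Glo luminescence; single-point 40 uM screen[…].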

[2] = target: Guanidinoacetate N-methyltransferase (Homo sapiens) (UniProt Q14353); settings: purified enzyme, MTase-Glo SAH luminescence; measured here: GAMT inhibition; at 40 µM; stronger effect = lower value
Outline: as §1

[3] = target: Histamine N-methyltransferase (Homo sapiens) (UniProt P50135); settings: purified enzyme, MTase-Glo SAH luminescence; measured here: HNMT inhibition; at 40 µM; stronger effect = lower value
Outline: as §1

[4] = target: Nicotinamide N-methyltransferase (Homo sapiens) (UniProt P40261); settings: purified enzyme, MTase-Glo SAH luminescence; measured here: NNMT inhibition; at 40 µM; stronger effect = lower value
Outline: as §1

[5] = target: Phenylethanolamine N-methyltransferase (Homo sapiens) (UniProt P11086); settings: purified enzyme, MTase-Glo SAH luminescence; measured here: PNMT inhibition; at 40 µM; stronger effect = lower value
Outline: as §1
% is set by controls: 0 for no effect and ±100 for the full control effect.

Compound | activity change, negative = inhibition [1] [%] | activity change, negative = inhibition [2] [%] | activity change, negative = inhibition [3] [%] | activity change, negative = inhibition [4] [%] | activity change, negative = inhibition [5] [%]
O=C(c1ccccc1F)N1CCn2ncc(C(=O)N3CCOCC3)c2C1 | -0.065 | 0.775 | 0.947 | 0.683 | 1.51
CCCC1c2ccc(C)n2CCN1C(=O)Nc1cc(C)ccc1OC (stereo not drawn) | -3.09 | 3.49 | -9.91 | 0.619 | -6.37
O=C(Cn1nc2n(Cc3ccc(F)cc3)c(=O)c3ccccc3n2c1=O)Nc1ccc(Cl)cc1 | 4.7 | 0 | 11 | 3.15 | 3.15
CCOc1ccccc1CN1C(=O)c2ccc(-c3ccccc3)n2CC1(C)C(=O)NC1CCCCC1 (stereo not drawn) | 3.71 | 0.738 | 1.61 | 2.42 | 0.622
CCN(CC)CCOCCOC(=O)C1(c2ccccc2)CCCC1 | -8.31 | 0.731 | -1.1 | -9.63 | 2.82
COc1ccc2cc3n(c2c1)CC(C)(C(=O)NC1CCCCC1)N(Cc1ccccc1F)C3=O (stereo not drawn) | 2.71 | 0.498 | 7.32 | 1.06 | 0.855
O=C(NCCN1CCCCC1)C1CN(S(=O)(=O)c2cccnc2)CC12CCCCC2 (stereo not drawn) | -0.47 | -1.6 | -26.4 | -18.9 | -2.97
CCCSCCCN1C(=O)c2nc3ccccc3n2CC1(C)C(=O)NC1CCCCCC1 (stereo not drawn) | 2.27 | 2.25 | 5.75 | 6.19 | 0.181
CC(=O)O[C@@H]1[C@@H](O)[C@H](O[C@@H]2[C@@H](O)[C@@H](O)[C@H](O[C@H]3[C@H](O[C@H]4[C@H](O[C@H]5CC[C@@]6(C)C(CC[C@]7(C)C6CC=C6[C@@H]8CC(C)(C)CC[C@]8(C(=O)O)CC[C@]67C)[C@]5(C)CO)O[C@H](CO)[C@@H](O)[C@@H]4O)OC[C@@H](O)[C@@H]3O)O[C@H]2C)OC[C@H]1O (stereo partly drawn) | 2.98 | -3.04 | 11 | -17.3 | -5.74
C=CCNC(=O)C[C@@H]1CCN(C(=O)c2cccnc2)C[C@@H]1CC | -5.62 | -6.34 | -10.9 | -6.22 | 0.111
CN1CCCCC(CC(=O)NCc2cc(F)ccc2F)C1=O (stereo not drawn) | -3.61 | -8.33 | -5.13 | -9.74 | -8.96
Cc1cc(C(C)(C)C)cc(C)c1CC1=NCCN1 | -5.87 | 0.645 | -7.2 | -7.7 | 4.2
CCc1nnc(CN2CCC(C(=O)Nc3cccc(-c4ccco4)c3)CC2)o1 | -9.81 | -9.61 | -4.03 | -8.21 | -8.23
Cc1ccc(S(=O)(=O)Nc2nc3ccc(C)cc3nc2Nc2ccc3c(c2)n(C)c(=O)n3C)cc1 | 15.2 | 0.481 | 1.88 | 3.48 | -6.14
Cc1ccsc1C(=O)N1CCc2nnc([C@@H]3C[C@@H](O)CN3C(C)C)n2CC1 | -5.99 | -7.23 | -4.3 | -12.3 | -7.6
CC1(C)CC(NC(=O)C(=O)Nc2ccc(Cl)cc2)CC(C)(C)N1 | -0.994 | 1.12 | 7.82 | -11.8 | 1.88
COc1cc(NC(=O)c2ccccn2)ccc1Cl | -1.54 | 3.9 | 8.88 | -14.6 | 0.111
O=C(Nc1cnc(Cl)nc1)c1ccc(F)c(F)c1 | -8.12 | -11.1 | 5.55 | -19.9 | -3.24
COc1ccc(N2C(=O)c3cc4ccccc4n3CC2(C)C(=O)NC2CCCC2)c(OC)c1 (stereo not drawn) | -1.32 | 0 | 6.27 | -6.82 | 0.007
O=c1[nH]ccc2c(O)cccc12 | 4.41 | 9.3 | 10.3 | -6.37 | 2.74

Compound | activity change, negative = inhibition [1] [%] | activity change, negative = inhibition [2] [%] | activity change, negative = inhibition [3] [%] | activity change, negative = inhibition [4] [%] | activity change, negative = inhibition [5] [%]
CCc1cccc(NC(=O)Cn2nc3n(C4CC4)c(=O)c4ccc(C(=O)NC(C)C)cc4n3c2=O)c1 | 1.04 | 1.38 | 2.39 | -9.33 | -1.39
O=C(C(=O)N1CCc2[nH]nc(-c3ccccc3F)c2C1)c1ccco1 | -6.46 | -0.91 | 0.994 | -10.9 | -2.78
CC(C)c1noc([C@H]2C[C@@H]3C(=O)NCCCCCCN(C(=O)Cc4ccccc4)[C@@H]3C2)n1 | -2.4 | -10.4 | -5.55 | -12.1 | -11.8
COc1ccc(CNC(=O)C(C)n2ccc3cc(S(=O)(=O)N4CCCC4)ccc32)c(OC)c1 (stereo not drawn) | -1.58 | -2.22 | -1.61 | -22.7 | -5.19
CC1=CC2/C=C(\C)CCC3OC(C)(C)OC3CCC(=O)C23C(=O)NC(CC(C)C)C3C1C (stereo not drawn) | 0 | 1.91 | -2.53 | -13.8 | -0.303
C/C=C1\[C@H](OC2OC(COC3OC(CO)C(O)C(O)C3O)C(O)C(O)C2O)OC=C(C(=O)OC)[C@H]1CC(=O)OCCc1ccc(O)cc1 (stereo partly drawn) | -2.29 | -3.03 | 5.31 | -11.5 | -3.54
CC(C)CCn1c(=O)c2ccc(C(=O)NC(C)C)cc2n2c(=O)n(Cc3ccc(F)cc3)nc12 | -1.19 | -9.73 | 8.04 | -16.8 | -5.81
C=C1C(=O)O[C@@H]2C=C(COC(C)=O)CC/C=C(\CO)CC[C@@H]12 | 0 | 3.16 | 3.56 | -7.03 | 5.81
CCCCCNc1nc2c(-c3ccccc3)nnn2c2ccccc12 | -6.3 | 3.58 | -5.05 | -8.47 | -9.41
Cn1nc(-c2nc(C3CCOC3)no2)cc1-c1ccccc1 (stereo not drawn) | -0.721 | 2.24 | 2.69 | -4.11 | -15.5
O=C(c1cc(O)c(O)c([N+](=O)[O-])c1)c1ccccc1F | -70.2 | 6.39 | 8.26 | -8.6 | -15.9
Cc1cc(C)c(NC(=O)Cn2c(=O)c3ccc(Cl)cc3n3nncc23)c(C)c1 | -8.1 | 2.34 | -6.53 | -9.34 | -10.6
Cc1ccc(N2C(=O)c3cc4occc4n3CC2(C)C(=O)NC2CCCC(C)C2C)cc1 (stereo not drawn) | -8.06 | 1.15 | -3.06 | -0.664 | -5.84
CCOC(=O)c1ccc(N(C)c2csc(-c3ccccc3)n2)cc1 | 2.67 | -7.65 | 12.4 | -23.5 | -2.43
COc1cc2nc(N3CCN(C(=O)C4COc5ccccc5O4)CC3)nc(N)c2cc1OC (stereo not drawn) | -30.6 | 2.73 | -7.29 | -17.8 | -5.3
Cc1cc(Cn2cc3c4c(cccc42)[C@H](CC(C)C)N[C@H](C(=O)NC2CCCC2)C3)no1 | -5.02 | 0.937 | 0.246 | 3.86 | 0.92
CCCn1c(=O)c2ccc(C(=O)NC(C)C)cc2n2c(SCC(=O)c3ccc(C)cc3C)nnc12 | 0.375 | -1.97 | -0.46 | -4.57 | -5.87
O=C(NCCc1ccccc1)c1ccc2c(=O)nc3c(-c4ccc(Cl)cc4)n[nH]n3c2c1 | -5.06 | 1.96 | -2.56 | 5.48 | 1.78
CCc1cccc(N2C(=O)c3cc(C(=O)OC)nn3CC2(C)C(=O)NC2CCC(C)CC2)c1 (stereo not drawn) | -1.58 | 4.71 | 0.587 | 0.502 | -1.5
NC(=O)[C@@H](Cc1ccccc1)NC(=O)[C@@H]1C[C@@H](NS(=O)(=O)c2cccs2)CCN1C(=O)CSCC(=O)O | 0.45 | 2.9 | 2.3 | 0.817 | 2.6

Compound | activity change, negative = inhibition [1] [%] | activity change, negative = inhibition [2] [%] | activity change, negative = inhibition [3] [%] | activity change, negative = inhibition [4] [%] | activity change, negative = inhibition [5] [%]
O=S(=O)(c1ccccc1)c1nnn2c1nc(NCCc1ccccc1)c1cc(Cl)ccc12 | -2.14 | 1.81 | 2.47 | 5.78 | -0.726
Cc1ccccc1CN1C(=O)c2ccc(-c3ccco3)n2CC1(C)C(=O)NC1CCCCC1 (stereo not drawn) | -4.79 | 1.88 | 5.99 | -2.03 | -0.357
COCc1nnc2n1CCC(NC(=O)C1(c3ccc(OC)cc3)CC1)CC2 (stereo not drawn) | 6.93 | 2.38 | 2.05 | -4.89 | 16.3
NC[C@@](O)(c1ccc(Cl)cc1)c1ccc(-c2cn[nH]c2)cc1 | -0.748 | 0.126 | -86.3 | -13.2 | -6.86
Cc1ccc(CN2C(=O)c3cc4sccc4n3CC2(C)C(=O)NC2CCCC(C)C2C)cc1 (stereo not drawn) | -1.59 | 4.86 | 2.95 | 3.32 | -1.3
O=c1c2ccccc2n2c(-c3ccc(Br)cc3)nnc2n1CCc1ccccc1 | 2.37 | 0.613 | 3.97 | 7.53 | -1.99
CCOc1ccc(CN2C(=O)c3cc4oc(C)cc4n3CC2(C)C(=O)NC2CCCCC2)cc1 (stereo not drawn) | 3.01 | 1.67 | 6.45 | 5.85 | 2.8
O=C(Cn1nc2n(Cc3ccccc3)c(=O)c3ccccc3n2c1=O)NCc1ccccc1 | -4.89 | 0 | 0.59 | -2.24 | 1.03
COc1cc(/C=C/c2ccccc2)c(C(=O)O)c(O)c1CC=C(C)C | -6.99 | 0.376 | 7.91 | -17.2 | -4.44
Cc1ccccc1Cn1nc2n(CC(C)C)c(=O)c3ccc(C(=O)NC4CCCC4)cc3n2c1=O | 4.51 | 0.56 | 9.66 | 2.6 | 5.95
CC(C)C1CN(C(=O)CNC(=O)N(C)C)CCCN1Cc1ccc(F)cc1 (stereo not drawn) | -3.49 | -4.05 | 0.217 | -14.2 | 3.61
CCOC(=O)c1cc2n(n1)CC(C)(C(=O)NCc1ccc(F)cc1)N(Cc1ccccc1F)C2=O (stereo not drawn) | 5.6 | 0 | 10.4 | 9.25 | 6.26
COc1cc(OC)c2ccc(=O)oc2c1 | – | -0.326 | – | -13.7 | 5.69
CCOCCCN1C(=O)c2cc3c(OC)ccc(OC)c3n2CC1(C)C(=O)NC1CCCCC1 (stereo not drawn) | -14.5 | 4.84 | 4.51 | 9.62 | -33.1
CC(C)Cn1c(=O)c2ccc(C(=O)NC3CCCC3)cc2n2c(=O)n(Cc3ccccc3F)nc12 | 4.94 | 3.3 | 7.81 | 3.9 | 5.66
CCN(CC)C(=O)Nc1ccc(OCC(O)CNC(C)(C)C)c(C(C)=O)c1 (stereo not drawn) | 4.62 | 3.84 | 4.89 | -8.49 | 0.944
CCC(C)NC(=O)c1ccc2c(=O)n(C(C)C)c3nn(CC(=O)NCc4ccccc4)c(=O)n3c2c1 (stereo not drawn) | 3.34 | 1.31 | 2.47 | 0.298 | 2.18
CNC(=O)N1CCC(C2CCN(C(=O)Cc3c(F)cccc3Cl)C2)CC1 (stereo not drawn) | -1.54 | -7.3 | 2.6 | -4.81 | 1.51
Cc1ccc(CNC(=O)c2cc3n(n2)CC(C)(C(=O)NCc2ccccc2)N(C)C3=O)cc1 (stereo not drawn) | 7.07 | 0 | 4.99 | 10.9 | 3.61
